Molecules are shown by their SMILES. Structures can show the parent of a compound that is named as a salt. In all, about 2,800 compounds were measured (“cell viability relative to vehicle”: median about 1.1, lowest 2% from about 0.19 on). The list shows a part of the results.

This experiment concerns NCI-H2228 parental. Description: cell viability relative to vehicle (fraction of vehicle); NCI-H2228 is an ALK-positive lung cancer line and DTP means drug-tolerant persister; higher = less growth inhibition. The settings on record: 100 nM; treatment time 6 days. The procedure, abridged:
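Drug-tolerant persister NCI-H2228 cells, produced by 13 days in 1000 nM of a targeted drug, and their parental counterparts were seeded into 384-well plates and, the following day, given the 3114-agent TargetMol anti-cancer compound library at 100 nM or DMSO vehicle. After 6 days, the CellTiter-Glo 3D Cell Viability Assay was used to read ATP. Each entry reports viability compared with vehicle-treated cells.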
Take `CCc1c(C)[nH]c2c1C(=O)C(CN1CCOCC1)CC2` (stereo not drawn) [Molindone hydrochloride]: the cell viability was 1.11.

On to `Cc1ccc(NCCCc2ccccc2)c(N)c1`, for which the cell viability is 1.06.

Regarding `C=CC(=O)Nc1cc(Nc2nccc(-c3cn(C)c4ccccc34)n2)c(OC)cc1N(C)CCN(C)C` [Osimertinib mesylate], the cell viability stood at 1.06.

On to `C=CC(=O)Nc1cc(Nc2nccc(-c3cn(C)c4ccccc34)n2)c(OC)cc1N(C)CCN(C)C` [Osimertinib], for which the cell viability came out at 1.03.

Turning to `C#Cc1cccc(Nc2ncnc3cc4c(cc23)OCCOCCOCCO4)c1` [Icotinib], the cell viability is 1.09.

On to `N[C@@H](CCC(=O)N[C@@H](CS)C(=O)NCC(=O)O)C(=O)O` [Glutathione], for which the cell viability was 1.17.

As for `c1ccc(-c2[nH]ncc2-c2ccnc3ccccc23)nc1`, the cell viability came out at 1.05.

`CCN(CC)CC(O)CNc1ccc(NCC2CO2)c2c1C(=O)c1ccccc1C2=O` (stereo not drawn): the cell viability came to 0.872.

Take `C[C@@H]1CC[C@@]2(NC1)O[C@H]1C[C@H]3[C@@H]4CC=C5C[C@@H](O[C@@H]6O[C@H](CO)[C@H](O)[C@H](O[C@@H]7O[C@H](CO)[C@@H](O)[C@H](O)[C@H]7O)[C@H]6O[C@@H]6O[C@@H](C)[C@H](O)[C@@H](O)[C@H]6O)CC[C@]5(C)[C@H]4CC[C@]3(C)[C@H]1[C@@H]2C` [Solasonine]: the cell viability was 1.1.

With `CCCSc1nc(N[C@@H]2C[C@H]2c2ccc(F)c(F)c2)c2nnn([C@@H]3C[C@H](OCCO)[C@@H](O)[C@H]3O)c2n1` [Ticagrelor], the cell viability turned out to be 1.11.

For `C=CC(=O)Nc1cccc(Nc2nc(Nc3ccc(Oc4ccnc(C(=O)NC)c4)cc3)ncc2F)c1`, the cell viability came out at 1.14.

Turning to `C=C1C[C@@]2(O)O[C@@]3(C[C@H]2C(C)C)[C@@H](C)CC[C@@H]13` [Curcumol], the cell viability was found to be 1.09.

`O=C(O)COCCN1CCN(C(c2ccccc2)c2ccc(Cl)cc2)CC1` (stereo not drawn) [Cetirizine dihydrochloride]: the cell viability came out at 1.2.

For `CCCCNc1ncc2c(-c3ccc(CN4CCN(C)CC4)cc3)cn(C3CCC(O)CC3)c2n1` (stereo not drawn), the cell viability turned out to be 0.92.

Regarding `N[C@H]1C[C@@H]1c1ccc(-c2cccc(O)c2)cc1`, the cell viability is 0.967.

On to `CC(C)c1cc(-c2n[nH]c(=O)n2-c2ccc3c(ccn3C)c2)c(O)cc1O` [Ganetespib], for which the cell viability worked out at 0.118.

As for `CC(=O)O[C@]1(C(C)=O)CC[C@H]2[C@@H]3C=C(Cl)C4=CC(=O)[C@@H]5C[C@@H]5[C@]4(C)[C@H]3CC[C@@]21C` [Cyproterone acetate], the cell viability is 0.855.

With `O=C(Nc1ccc(C(O)(C(F)(F)F)C(F)(F)F)cc1)c1ccc(C(F)(F)F)cc1`, the cell viability is 1.07.

As to `Clc1ccc(CO/N=C(\Cn2ccnc2)c2ccc(Cl)cc2Cl)c(Cl)c1` [Oxiconazole nitrate], the cell viability came out at 0.951.

With `COc1ccc(-c2ccc3ncc4c(c3c2)n(-c2ccc(N3CCNCC3)c(C(F)(F)F)c2)c(=O)n4C)cn1`, the cell viability came to 0.172.

For `Clc1ccc(Cn2c(CN3CCCC3)nc3ccccc32)cc1` [Clemizole], the cell viability was 1.06.

In the case of `COc1cc2nc(N(C)CCCNC(=O)C3CCCO3)nc(N)c2cc1OC` (stereo not drawn) [Alfuzosin hydrochloride], the cell viability stood at 1.12.

For the compound `COc1c2c(cc3c1-c1c(cc4c(c1OC)OCO4)C[C@H](C)[C@H](C)C3)OCO2` [Schisandrin C], the cell viability was determined as 0.951.

`CC1(C)CC(=O)c2c(C(F)(F)F)nn(-c3ccc(C(N)=O)c(N[C@H]4CC[C@H](O)CC4)c3)c2C1`: the cell viability came out at 0.209.

On to `O=C(O)/C=C/c1ccc(O)c(O)c1` [Caffeic Acid], for which the cell viability is 1.

Regarding `CCCCc1nc2cc(/C=C/C(=O)NO)ccc2n1CCN(CC)CC` [Pracinostat], the cell viability amounted to 0.872.

Take `CC(=O)O[C@]1(C(C)=O)CC[C@H]2[C@@H]3CCC4=CC(=O)CCC4=C3[C@@H](c3ccc(N(C)C)cc3)C[C@@]21C` [Ulipristal acetate]: the cell viability was determined as 1.25.

On to `N#CSc1cc(SC#N)c(N)nc1N`, for which the cell viability was determined as 0.779.

Consider `CC(=O)Nc1nc2c(Oc3cc(-c4ccc(C(F)(F)F)cc4)ncn3)cccc2s1`, for which the cell viability came out at 1.1.

As to `N[C@@H](Cc1c[nH]c2ccc(O)cc12)C(=O)O` [L-5-Hydroxytryptophan], the cell viability is 1.

Turning to `CC#CC(=O)N1CCC[C@H]1c1nc(-c2ccc(C(=O)Nc3ccccn3)cc2)c2c(N)nccn12` [Acalabrutinib], the cell viability was determined as 1.14.

As to `CN1C[C@@H]2C[C@H]1CN2c1cc2c(cc1F)c(=O)c(C(=O)O)cn2C1CC1` [Danofloxacin mesylate], the cell viability was 1.11.

Turning to `CC(C)n1nc(-c2ccc3oc(N)nc3c2)c2c(N)ncnc21`, the cell viability came out at 0.222.

In the case of `N=C(N)Nc1ccc(C(=O)Oc2ccc3cc(C(=N)N)ccc3c2)cc1` [Nafamostat mesylate], the cell viability turned out to be 1.08.

On to `Nc1ccc(/C=C/C(=O)NCc2cc3cc(-c4ccc(C(=O)N5CCC(F)(F)CC5)cc4)cc(-c4ccc(F)cc4)c3o2)cn1`, for which the cell viability stood at 1.12.

As to `O=C(NO)c1cccc(C(=O)NCCc2ccccc2)c1`, the cell viability was 1.08.

With `COc1ccc(CC(C)(C)NC[C@H](O)c2cc(O)cc3c2OCC(=O)N3)cc1` [Olodaterol], the cell viability stood at 0.923.

For the compound `Nc1cccc2c1C(=O)N(C1CCC(=O)NC1=O)C2=O` (stereo not drawn) [Pomalidomide], the cell viability stood at 1.17.

As to `Oc1ccc(OC2CCCCO2)cc1` (stereo not drawn) [Deoxyarbutin], the cell viability is 0.997.

Regarding `C=C1C[C@@]23CC[C@H]4[C@@](C)(CCC[C@@]4(C)C(=O)O)[C@@H]2CC[C@]1(O)C3` [Steviol], the cell viability is 0.857.

Consider `O=C(NCC(=O)N1CC[C@H](N[C@H]2CC[C@@](O)(c3ccc(-c4ncccn4)cn3)CC2)C1)c1cccc(C(F)(F)F)c1`, for which the cell viability stood at 1.16.

Take `CC1(C)CCC(C)(C)c2cc(NC(=O)c3ccc(C(=O)O)cc3)ccc21` [Tamibarotene]: the cell viability amounted to 0.582.

For the compound `COc1cc(C(=O)O)ccc1NC(=O)[C@@H]1N[C@@H](CC(C)(C)C)[C@](C#N)(c2ccc(Cl)cc2F)[C@H]1c1cccc(Cl)c1F` [Idasanutlin], the cell viability came to 1.02.

With `O=C(O)C(O)Cc1ccc(O)c(O)c1` (stereo not drawn) [Sodium Danshensu], the cell viability turned out to be 0.949.

Turning to `N=C(N)NC(=O)Cc1c(Cl)cccc1Cl` [Guanfacine hydrochloride], the cell viability came to 1.15.

In the case of `O=C1Nc2ccccc2/C1=C1/Nc2ccccc2C1=O` [Indirubin], the cell viability was 0.995.

In the case of `COc1ccc(S(=O)(=O)Nc2cc(-c3c(O)ccc4ccccc34)c(O)c3ccccc23)cc1`, the cell viability turned out to be 0.987.

Regarding `O=C1C[C@@H](c2ccc(O)cc2)Oc2cc(O)ccc21` [Liquiritigenin], the cell viability was determined as 1.1.

In the case of `CC(C)=CCC[C@](C)(O[C@@H]1O[C@H](CO)[C@@H](O)[C@H](O)[C@H]1O)[C@H]1CC[C@]2(C)[C@@H]1[C@H](O)C[C@@H]1[C@@]3(C)CC[C@H](O)C(C)(C)[C@@H]3[C@@H](O)C[C@]12C` [Ginsenoside F1], the cell viability was 1.1.

As to `Nc1ncnc2c1ncn2[C@@H]1O[C@H](CO)[C@@H](O)[C@H]1O` [Adenosine], the cell viability turned out to be 1.14.

`C=CC(=O)N1CC[C@H](n2nc(C#Cc3cc(OC)cc(OC)c3)c3c(N)ncnc32)C1`: the cell viability is 0.875.

Consider `C[C@@H](NC(=O)c1ncnc(N)c1Cl)c1ncc(C(=O)Nc2cc(C(F)(F)F)c(Cl)cn2)s1`, for which the cell viability was 1.19.

As for `C[n+]1cc2c3c(ccc2c2ccc4cc5c(cc4c21)OCO5)OCO3` [Sanguinarine chloride], the cell viability was found to be 1.07.

Consider `Cc1cc(/C=C2/SC(=S)NC2=O)c(C)n1-c1cccnc1` [Optovin], for which the cell viability amounted to 0.95.

For the compound `Nc1ccn([C@@H]2O[C@H](CO)[C@@H](O)C2(F)F)c(=O)n1` [Gemcitabine], the cell viability was 0.0956.

For the compound `Nc1ccn([C@@H]2O[C@H](CO)[C@@H](O)C2(F)F)c(=O)n1` [Gemcitabine HCl], the cell viability is 0.121.

With `COc1ccccc1N1CCN(CCN(C(=O)C2CCCCC2)c2ccccn2)CC1`, the cell viability was determined as 1.09.

Consider `CN(C)CCN(Cc1ccccc1)c1ccccn1` [Tripelennamine hydrochloride], for which the cell viability was 1.03.

As for `CC1CNc2c(cccc2S(=O)(=O)N[C@@H](CCCNC(=N)N)C(=O)N2CC[C@@H](C)C[C@@H]2C(=O)O)C1` (stereo partly drawn) [Argatroban], the cell viability was 1.18.

In the case of `C=CC1=C(C)c2cc3[nH]c(cc4nc(cc5[nH]c(cc1n2)c(C)c5CCC(=O)O)C(CCC(=O)O)=C4C)c(C)c3C=C` [Protoporphyrin IX], the cell viability was 1.14.

Turning to `CO[C@H]1C[C@@H]2CC[C@@H](C)[C@@](O)(O2)C(=O)C(=O)N2CCCC[C@H]2C(=O)O[C@H]([C@H](C)C[C@@H]2CC[C@@H](OCCO)[C@H](OC)C2)CC(=O)[C@H](C)/C=C(\C)[C@@H](O)[C@@H](OC)C(=O)[C@H](C)C[C@H](C)/C=C/C=C/C=C/1C` [Everolimus], the cell viability worked out at 0.704.

For the compound `Fc1ccc(Cl)cc1-c1nc(Nc2ccncc2)c2nccnc2n1`, the cell viability was 1.11.

For the compound `C=C(C)[C@@H]1CC[C@]2(C(=O)O)CC[C@]3(C)[C@H](CC[C@@H]4[C@@]5(C)CCC(=O)C(C)(C)[C@@H]5CC[C@]43C)[C@@H]12` [Betulonic acid], the cell viability amounted to 0.94.

Consider `O=C(/C=C/c1ccccc1)NC(NC(=S)Nc1cccc2cccnc12)C(Cl)(Cl)Cl` (stereo not drawn) [Salubrinal], for which the cell viability stood at 1.2.

With `CC(=O)OC(CC(C)C1=C2C[C@H](O)C3[C@@]4(C)CCC(=O)C(C)(C)C4CC[C@]3(C)[C@@]2(C)CC1)C1OC1(C)C` (stereo partly drawn) [Alisol B 23-acetate], the cell viability came out at 0.99.

For `CC(=O)O[C@@]12CO[C@@H]1C[C@H](O)[C@@]1(C)C(=O)[C@H](O)C3=C(C)[C@@H](OC(=O)[C@H](O)[C@@H](NC(=O)OC(C)(C)C)c4ccccc4)C[C@@](O)([C@@H](OC(=O)c4ccccc4)[C@H]21)C3(C)C` [Docetaxel trihydrate], the cell viability came to 0.154.

Take `CC(=O)O[C@@]12CO[C@@H]1C[C@H](O)[C@@]1(C)C(=O)[C@H](O)C3=C(C)[C@@H](OC(=O)[C@H](O)[C@@H](NC(=O)OC(C)(C)C)c4ccccc4)C[C@@](O)([C@@H](OC(=O)c4ccccc4)[C@H]21)C3(C)C` [Docetaxel]: the cell viability stood at 0.118.

Regarding `C[C@H](NC(=O)/C(C#N)=C/c1cccc(Br)n1)c1ccccc1`, the cell viability is 1.05.
